Experimental data reported in paper PMC9911399, “Two distinct binding modes provide the RNA-binding protein RbFox with extraordinary sequence specificity”.
Numbering of substitutions follows the chain as printed; changes in the protein carry UniProt numbers. This is one part of the list.

T1: RBFOX1 RRM RbFoxmut (Fox-RRM*) (Homo sapiens, UniProt Q9NWB1 109-208, R118D;E147R;N151S;E152T)
T1 sequence: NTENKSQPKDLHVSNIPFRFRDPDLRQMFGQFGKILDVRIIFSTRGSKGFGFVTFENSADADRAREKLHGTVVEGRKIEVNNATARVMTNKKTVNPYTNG

B1: CGUAUUU (DNA:RNA)
RNA: GGGAGACCGGAAUUCAGAUUGUCCCGUAUUUUUAAAUCCCGUCGUAGCCACCA
DNA 1: CAATCTGAATTCCGGTCTCCC
DNA 2: TGGTGGCTACGACGGGATT
B2: GGGAGUU (DNA:RNA)
RNA: B1 RNA with C25G, U27G, U29G
DNA 1: CAATCTGAATTCCGGTCTCCC
DNA 2: TGGTGGCTACGACGGGATT
B3: AAAAUUU (DNA:RNA)
RNA: B1 RNA with C25A, G26A, U27A
DNA 1: CAATCTGAATTCCGGTCTCCC
DNA 2: TGGTGGCTACGACGGGATT
B4: UCCGUGA (DNA:RNA)
RNA: B1 RNA with C25U, G26C, U27C, A28G, U30G, U31A
DNA 1: CAATCTGAATTCCGGTCTCCC
DNA 2: TGGTGGCTACGACGGGATT
B5: CGGCGUU (DNA:RNA)
RNA: B1 RNA with U27G, A28C, U29G
DNA 1: CAATCTGAATTCCGGTCTCCC
DNA 2: TGGTGGCTACGACGGGATT
B6: CAGGAGC (DNA:RNA)
RNA: B1 RNA with G26A, U27G, A28G, U29A, U30G, U31C
DNA 1: CAATCTGAATTCCGGTCTCCC
DNA 2: TGGTGGCTACGACGGGATT
B7: CUUUCAG (DNA:RNA)
RNA: B1 RNA with G26U, A28U, U29C, U30A, U31G
DNA 1: CAATCTGAATTCCGGTCTCCC
DNA 2: TGGTGGCTACGACGGGATT
B8: CUUCGUC (DNA:RNA)
RNA: B1 RNA with G26U, A28C, U29G, U31C
DNA 1: CAATCTGAATTCCGGTCTCCC
DNA 2: TGGTGGCTACGACGGGATT
B9: GUCGUUG (DNA:RNA)
RNA: B1 RNA with C25G, G26U, U27C, A28G, U31G
DNA 1: CAATCTGAATTCCGGTCTCCC
DNA 2: TGGTGGCTACGACGGGATT
B10: CUACAUU (DNA:RNA)
RNA: B1 RNA with G26U, U27A, A28C, U29A
DNA 1: CAATCTGAATTCCGGTCTCCC
DNA 2: TGGTGGCTACGACGGGATT
B11: UACCGAC (DNA:RNA)
RNA: GGGAGACCGGAAUUCAGAUUGUCCUACCGACUUAAAUCCCGUCGUAGCCACCA
DNA 1: CAATCTGAATTCCGGTCTCCC
DNA 2: TGGTGGCTACGACGGGATT
B12: GUAUUUA (DNA:RNA)
RNA: B1 RNA with C25G, G26U, U27A, A28U, U31A
DNA 1: CAATCTGAATTCCGGTCTCCC
DNA 2: TGGTGGCTACGACGGGATT
B13: UACAGUA (DNA:RNA)
RNA: B11 RNA with C28A, A30U, C31A
DNA 1: CAATCTGAATTCCGGTCTCCC
DNA 2: TGGTGGCTACGACGGGATT
B14: UUGCAGG (DNA:RNA)
RNA: B11 RNA with A26U, C27G, G29A, A30G, C31G
DNA 1: CAATCTGAATTCCGGTCTCCC
DNA 2: TGGTGGCTACGACGGGATT
B15: CCGGAUU (DNA:RNA)
RNA: B1 RNA with G26C, U27G, A28G, U29A
DNA 1: CAATCTGAATTCCGGTCTCCC
DNA 2: TGGTGGCTACGACGGGATT
B16: CCAGUCA (DNA:RNA)
RNA: B1 RNA with G26C, U27A, A28G, U30C, U31A
DNA 1: CAATCTGAATTCCGGTCTCCC
DNA 2: TGGTGGCTACGACGGGATT
B17: CACCACC (DNA:RNA)
RNA: B11 RNA with U25C, G29A, A30C
DNA 1: CAATCTGAATTCCGGTCTCCC
DNA 2: TGGTGGCTACGACGGGATT
B18: GGGCCUA (DNA:RNA)
RNA: B1 RNA with C25G, U27G, A28C, U29C, U31A
DNA 1: CAATCTGAATTCCGGTCTCCC
DNA 2: TGGTGGCTACGACGGGATT
B19: UAGCACU (DNA:RNA)
RNA: B11 RNA with C27G, G29A, A30C, C31U
DNA 1: CAATCTGAATTCCGGTCTCCC
DNA 2: TGGTGGCTACGACGGGATT
B20: CCUCUCC (DNA:RNA)
RNA: B1 RNA with G26C, A28C, U30C, U31C
DNA 1: CAATCTGAATTCCGGTCTCCC
DNA 2: TGGTGGCTACGACGGGATT
B21: UAUCGGG (DNA:RNA)
RNA: B11 RNA with C27U, A30G, C31G
DNA 1: CAATCTGAATTCCGGTCTCCC
DNA 2: TGGTGGCTACGACGGGATT
B22: CGGCACC (DNA:RNA)
RNA: B1 RNA with U27G, A28C, U29A, U30C, U31C
DNA 1: CAATCTGAATTCCGGTCTCCC
DNA 2: TGGTGGCTACGACGGGATT
B23: CACACAU (DNA:RNA)
RNA: B1 RNA with G26A, U27C, U29C, U30A
DNA 1: CAATCTGAATTCCGGTCTCCC
DNA 2: TGGTGGCTACGACGGGATT
B24: CUCCUUG (DNA:RNA)
RNA: B1 RNA with G26U, U27C, A28C, U31G
DNA 1: CAATCTGAATTCCGGTCTCCC
DNA 2: TGGTGGCTACGACGGGATT
B25: CGACUAC (DNA:RNA)
RNA: B1 RNA with U27A, A28C, U30A, U31C
DNA 1: CAATCTGAATTCCGGTCTCCC
DNA 2: TGGTGGCTACGACGGGATT
B26: AAGCCCC (DNA:RNA)
RNA: B11 RNA with U25A, C27G, G29C, A30C
DNA 1: CAATCTGAATTCCGGTCTCCC
DNA 2: TGGTGGCTACGACGGGATT
B27: AGGCACG (DNA:RNA)
RNA: B1 RNA with C25A, U27G, A28C, U29A, U30C, U31G
DNA 1: CAATCTGAATTCCGGTCTCCC
DNA 2: TGGTGGCTACGACGGGATT
B28: CCUGGUC (DNA:RNA)
RNA: B1 RNA with G26C, A28G, U29G, U31C
DNA 1: CAATCTGAATTCCGGTCTCCC
DNA 2: TGGTGGCTACGACGGGATT
B29: GGAAAGC (DNA:RNA)
RNA: B1 RNA with C25G, U27A, U29A, U30G, U31C
DNA 1: CAATCTGAATTCCGGTCTCCC
DNA 2: TGGTGGCTACGACGGGATT
B30: UUUAGGC (DNA:RNA)
RNA: B11 RNA with A26U, C27U, C28A, A30G
DNA 1: CAATCTGAATTCCGGTCTCCC
DNA 2: TGGTGGCTACGACGGGATT
B31: GGUCUUG (DNA:RNA)
RNA: B1 RNA with C25G, A28C, U31G
DNA 1: CAATCTGAATTCCGGTCTCCC
DNA 2: TGGTGGCTACGACGGGATT

Target: T1, RBFOX1 RRM RbFoxmut (Fox-RRM*)
Experiment: EMSA; HiTS-Eq, 1 nM pool, 10 min; buffer printed only for the single-RNA assays: 10 mM Tris pH 7.5, 150 mM NaCl, 3.4 mM EDTA, 0.001% NP-40, 30 C
Settings: tags: His6 N-terminal (pET28a); label: 5' 32P
Procedure, shortened: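 These values rest on relative association constants, computed from read-count changes of each RNA species versus the control reaction and normalised to the cognate motif. Reads came from free RNA recovered by 8% native PAGE after purified RbFox RRM (wild type or mutant) at increasing concentrations was equilibrated for 10 min in 50 µL with 1 nM of a 5′-radiolabelled pool with 7 randomized nucleotides and DNA-annealed flanks.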

| Binder | binding signal |
| --- | --- |
| B1 | 0.111 KA relative to UGCAUGU |
| B2 | 0.09 KA relative to UGCAUGU |
| B3 | 0.0695 KA relative to UGCAUGU |
| B4 | 0.0773 KA relative to UGCAUGU |
| B5 | 0.0865 KA relative to UGCAUGU |
| B6 | 0.0997 KA relative to UGCAUGU |
| B7 | 0.107 KA relative to UGCAUGU |
| B8 | 0.124 KA relative to UGCAUGU |
| B9 | 0.167 KA relative to UGCAUGU |
| B10 | 0.0434 KA relative to UGCAUGU |
| B11 | 0.0696 KA relative to UGCAUGU |
| B12 | 0.142 KA relative to UGCAUGU |
| B13 | 0.0917 KA relative to UGCAUGU |
| B14 | 0.129 KA relative to UGCAUGU |
| B15 | 0.0781 KA relative to UGCAUGU |
| B16 | 0.0567 KA relative to UGCAUGU |

| Binder | binding signal |
| --- | --- |
| B17 | 0.0571 KA relative to UGCAUGU |
| B18 | 0.0793 KA relative to UGCAUGU |
| B19 | 0.0669 KA relative to UGCAUGU |
| B20 | 0.0483 KA relative to UGCAUGU |
| B21 | 0.105 KA relative to UGCAUGU |
| B22 | 0.0869 KA relative to UGCAUGU |
| B23 | 0.0922 KA relative to UGCAUGU |
| B24 | 0.118 KA relative to UGCAUGU |
| B25 | 0.111 KA relative to UGCAUGU |
| B26 | 0.0791 KA relative to UGCAUGU |
| B27 | 0.237 KA relative to UGCAUGU |
| B28 | 0.166 KA relative to UGCAUGU |
| B29 | 0.0562 KA relative to UGCAUGU |
| B30 | 0.0793 KA relative to UGCAUGU |
| B31 | 0.368 KA relative to UGCAUGU |
